Measurements from US20190315864A1 (SUZHOU ALPHAMAB, published 2019).

Experiments:
CTLA4-Fc fusion protein [1] = biological target: T1, CTLA4-Fc fusion protein (human, biotinylated where used as CTLA4-Fc-Biotin (Examples 5.1-5.3)); test: ELISA: plate coated with the Fc fusion protein at 0.5 µg/well, CTLA4-Fc-Biotin titrated, SA-HRP, OD405; symbols and unit (ng/mL) by paragraph 226, no legend on the sheet
T1 construct: expressed in HEK293 cells; also called human CTLA4-Fc protein; CTLA4-Fc antigen protein

[2] = biological target: T2, human PD1 on HEK293 cells (293-PD1-EGFP) (human, UniProt Q15116 25-288); test: flow cytometry on 293-PD1-EGFP cells, anti-hIg-PE [lower row, PD1]
T2 construct: whole, on cells
T2 sequence (Q15116 25-288): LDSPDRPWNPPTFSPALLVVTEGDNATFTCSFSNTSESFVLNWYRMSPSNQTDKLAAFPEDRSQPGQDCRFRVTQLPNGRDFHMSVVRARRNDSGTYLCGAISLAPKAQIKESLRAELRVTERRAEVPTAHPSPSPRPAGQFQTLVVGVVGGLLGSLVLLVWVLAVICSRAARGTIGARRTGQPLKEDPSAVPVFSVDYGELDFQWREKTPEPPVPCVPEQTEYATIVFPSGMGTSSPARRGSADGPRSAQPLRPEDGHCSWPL

[3] = biological target: T3, fusion protein of CTLA4 and mouse Fc (human, UniProt P16410 36-161, limits assumed); test: SPR, BIAcore X100, antibody captured by anti-human Fc on CM5, CTLA4-mouse Fc as analyte, 25 C, 1:1 model
T3 construct: Analyte of the SPR experiment; also called recombinant human CTLA4
T3 sequence (P16410 36-161 limits assumed): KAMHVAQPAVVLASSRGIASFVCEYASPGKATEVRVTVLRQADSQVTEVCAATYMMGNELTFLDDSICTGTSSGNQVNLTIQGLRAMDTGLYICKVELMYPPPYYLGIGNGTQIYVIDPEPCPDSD

CTLA4-Fc fusion protein [4] = biological target: T1, CTLA4-Fc fusion protein; test: ELISA: human CTLA4-Fc coated at 0.5 µg/well, huC1v4-tet-Fc-Biotin titrated, SA-HRP, OD405; symbols by paragraph 238
T1 sequence (chain, as listed by the source limits assumed): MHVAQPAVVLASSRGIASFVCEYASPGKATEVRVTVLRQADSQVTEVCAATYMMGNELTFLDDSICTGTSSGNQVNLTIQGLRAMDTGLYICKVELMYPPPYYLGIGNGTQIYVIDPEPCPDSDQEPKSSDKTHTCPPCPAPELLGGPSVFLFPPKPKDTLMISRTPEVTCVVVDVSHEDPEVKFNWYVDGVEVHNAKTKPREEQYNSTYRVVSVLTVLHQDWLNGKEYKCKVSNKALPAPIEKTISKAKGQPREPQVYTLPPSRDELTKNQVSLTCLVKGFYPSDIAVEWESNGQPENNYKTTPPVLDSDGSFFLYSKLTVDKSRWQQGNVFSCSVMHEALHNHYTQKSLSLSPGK

Monkey CTLA4-Fc protein = biological target: T4, Monkey CTLA4-Fc protein (monkey); test: ELISA: monkey CTLA4-Fc coated at 0.5 µg/well, huC1v4-tet-Fc-Biotin titrated, SA-HRP, OD405; symbols by paragraph 238
T4 construct: Bought reagent

[5] = biological target: T5, human CD28 on HEK293 cells (293-CD28-EGFP) (human, UniProt P10747 19-220); test: flow cytometry on 293-CD28-EGFP cells, anti-hIg-PE [lower row, CD28]
T5 construct: whole, on cells

CTLA4-Fc fusion protein [6] = biological target: T1, CTLA4-Fc fusion protein; test: ELISA: plate coated with the Fc fusion protein at 0.5 µg/well, CTLA4-Fc-Biotin titrated, SA-HRP, OD405; value is C of the 4-parameter fit in the table under the plot; x axis has no unit on the sheet, ng/mL by paragraph 221
CTLA4-Fc fusion protein [7] = biological target: T1, CTLA4-Fc fusion protein; test: ELISA: plate coated with the antibody at 0.5 µg/well, CTLA4-Fc-Biotin titrated, SA-HRP, OD405; value is C of the 4-parameter fit in the table under the plot; x axis has no unit on the sheet, ng/mL by paragraph 218

| Binder | EC50 (read off the curve) (CTLA4-Fc fusion protein [1]) [µg/mL] | EC50 (CTLA4-Fc fusion protein [6]) [µg/mL] | EC50 (CTLA4-Fc fusion protein [7]) [µg/mL] | also measured |
| --- | --- | --- | --- | --- |
| huC27v3-LdFc (Fc fusion, Humanized VHH fused to human IgG1 Fc; bivalent homodimer) QVQLVESGGGLVQPGGSLRLSCAASGYIYSAYCMGWFRQAPGKGLVGVAAISIGGGSTYYADSVKGRFTISRDNSKNTLYLQMNSLRAEDTAVYYCAADVIPTETCLGGSWSGPFGYWGQGTLVTVSS[omitted - human IgG1 Fc] |  | 0.0307 | 0.0682 |  |
| huC1v4-Ld-Fc (Fc fusion, Humanized VHH C1 variant 4 fused to human IgG1 Fc; bivalent homodimer; also called huC1v4-Fc; bivalent CTLA4 single domain antibody Fc fusion protein) QVQLVESGGGLVQPGGSLRLSCAASGYIYSAYCMGWFRQAPGKGLEGVAAIYIGGGSTYYADSVKGRFTISRDNSKNTLYLQMNSLRAEDTAVYYCAADVIPTETCLGGSWSGPFGYWGQGTLVTVSS[omitted - human IgG1 Fc] | ~0.08 | 0.0376 |  |  |
| Fc fusion protein of CTLA4 single-domain antibody No. C27 (Fc fusion, VHH fused to human IgG1 Fc; bivalent homodimer; expressed in HEK293; also called C27-LdFc; unhumanized C27-LdFc) QVQLQESGGGSVQAGGSLRLSCAASGYIYSAYCMGWFRQAPGKERVGVAAISIGGGSTYYADSVKGRFTISQDNAKNTLYLQMNSLKPEDTAMYYCAADVIPTETCLGGSWSGPFGYWGQGTQVTVSSGS[omitted - human IgG1 Fc] |  |  | 0.0676 |  |
| Fc fusion protein of CTLA4 single-domain antibody No. C1 (Fc fusion, VHH fused to human IgG1 Fc; expressed in HEK293; also called C1-ld-Fc) QVQLQESGGGSVQAGGSLGLSCAASGYIYSAYCMGWFRQAPGKEREGVAAIYLGGGSTYYADSVKGRFTISQDIAKNTLYLQMNSLKPEDTAMYSCAADVIPTETCLGGSWSGPFGYWGQGTQVTVSSGS[omitted - human IgG1 Fc] | ~0.08 | 0.026 |  |  |

More lines, main results first:

| EC50 (read off the curve) (CTLA4-Fc fusion protein [1]) [µg/mL] | EC50 (CTLA4-Fc fusion protein [6]) [µg/mL] | EC50 (CTLA4-Fc fusion protein [7]) [µg/mL] | Binder | also measured |
| --- | --- | --- | --- | --- |
| ~0.1 |  |  | huC1v4-tet-Fc (Fc fusion, biotinylated in Example 5.6 (huC1v4-tet-Fc-Biotin), Two tandem CTLA4 single domain antibodies and one Fc in each chain; also called huC1v4-tet-Fc-Biotin; tetravalent CTLA4 single domain antibody Fc fusion protein) QVQLVESGGGLVQPGGSLRLSCAASGYIYSAYCMGWFRQAPGKGLEGVAAIYIGGGSTYYADSVKGRFTISRDNSKNTLYLQMNSLRAEDTAVYYCAADVIPTETCLGGSWSGPFGYWGQGTLVTVSSGSQVQLVESGGGLVQPGGSLRLSCAASGYIYSAYCMGWFRQAPGKGLEGVAAIYIGGGSTYYADSVKGRFTISRDNSKNTLYLQMNSLRAEDTAVYYCAADVIPTETCLGGSWSGPFGYWGQGTLVTVSS[omitted - human IgG1 Fc with changes] | binding result [2]: no binding; Kd [3]: 0.19 nM; EC50 (read off the curve) (CTLA4-Fc fusion protein [4]): ~0.04 µg/mL; EC50 (read off the curve) (Monkey CTLA4-Fc protein): ~0.04 µg/mL; binding result [5]: no binding |
|  |  | 0.0745 | huC27v4-LdFc (Fc fusion, Humanized VHH fused to human IgG1 Fc; bivalent homodimer; also called humanized form of the Fc fusion protein of antibody No. C27, variant 4) QVQLVESGGGLVQPGGSLRLSCAASGYIYSAYCMGWFRQAPGKGLEGVAAISIGGGSTYYADSVKGRFTISRDNSKNTLYLQMNSLRAEDTAVYYCAADVIPTETCLGGSWSGPFGYWGQGTLVTVSS[omitted - human IgG1 Fc] |  |
|  |  | 0.0774 | huC27v2-LdFc (Fc fusion, Humanized VHH fused to human IgG1 Fc; bivalent homodimer; also called humanized form of the Fc fusion protein of antibody No. C27, variant 2) QVQLVESGGGLVQPGGSLRLSCAASGYIYSAYCMGWFRQAPGKERVGVAAISIGGGSTYYADSVKGRFTISRDNSKNTLYLQMNSLRAEDTAVYYCAADVIPTETCLGGSWSGPFGYWGQGTLVTVSS[omitted - human IgG1 Fc] |  |
|  |  | 0.0742 | huC27v1-LdFc (Fc fusion, Humanized VHH fused to human IgG1 Fc; bivalent homodimer; also called humanized form of the Fc fusion protein of antibody No. C27, variant 1) QVQLVESGGGLVQPGGSLRLSCAASGYIYSAYCMGWFRQAPGKERVGVAAISIGGGSTYYADSVKGRFTISQDNSKNTLYLQMNSLRAEDTAVYYCAADVIPTETCLGGSWSGPFGYWGQGTLVTVSS[omitted - human IgG1 Fc] |  |
